{
  "source": "the RNAGym collection of RNA variant scans (doi:10.7554/elife.90254)",
  "parents": {"B1": {"name": "LINE1-mini (parent)", "chain": "GGCAGAGCUCAACACAGCGUGGCAAAGUGGCUGUGGCUAGACUGCC"}},
  "note": "The source gives no read counts; variants with many changes may rest on few reads.",
  "data": [
    {"variants_of": "B1", "test": "self-cleavage, relative activity (ratio to wild type); higher = more cleavage; in vitro, sequencing; the parent is a self-cleaving ribozyme", "values": [
      {"variant": "GGAAUAGCUCAACACAGCGUGGCAAAGUGGCUGAGGCUAUACUGCC", "self-cleavage": 0.08},
      {"variant": "GGAAUAGCUCAACACAGCCUGACAAUCUGGCUGUGGCUAGACUGCC", "self-cleavage": 0.02},
      {"variant": "GGAAGAGCUCAACACAGCGUGGCAAAGUGUAAGUGGCUAGACUGCC", "self-cleavage": 0.17},
      {"variant": "GGAAGAGCUCAACACAGCGUUGCAAAGUGGCUGUGGCUAGACUGCU", "self-cleavage": 1.08},
      {"variant": "GGAAGAGCUCAACACAGCGUGGCAAAUUGGUUGUGGCUAGACUGCC", "self-cleavage": 0.15},
      {"variant": "GGAAGAUCGCAACACAGCGUGUCAAACUGGAUGUCGCUAGACUGCC", "self-cleavage": 0.2},
      {"variant": "GGAAGAGCUCAACACAACGGGGAAAAGUGGCUGUGGCUAGACUGCC", "self-cleavage": 0.08},
      {"variant": "GGAAGAGCUCAACACAGCGUUACAAAGUGGCUGUGGGUAGACUGCU", "self-cleavage": 0.38},
      {"variant": "GGAAGAGCUCAACACAGCGUGGCAAAGUGUCUGUGGUUAGACUGCC", "self-cleavage": 1.68},
      {"variant": "GGAAGAGCUCAACACAGCGUGGCAAAGUGUCUCUGGCUAGACUGCC", "self-cleavage": 0.46},
      {"variant": "GGAAGAGCUCAACACAGCGAGGCAAAGUAGAUGUGGCUAGACUGCC", "self-cleavage": 0.16},
      {"variant": "GGAAUAGCUCCGCACCGCGUGGCAAAGUGGCUGUGGCUAGACUGCC", "self-cleavage": 0.03},
      {"variant": "GGAAUAGUUAAACACAGCGUGGCAAAGUGGCUGUGGCUAGCCUGCC", "self-cleavage": 0.07},
      {"variant": "GGAAGAGCUCAACACAGCGUGGCAAAAUGUCUGUGACUAGACUACC", "self-cleavage": 0.33},
      {"variant": "GGAAGAGCUCAACACACCAGGGCACAGUGGCUGUGGCUAGACUGCC", "self-cleavage": 0.36},
      {"variant": "GGAAGAGCUCAACACAGCGGGGCAAAGUGGCUGUGGCUAGACUCCC", "self-cleavage": 0.73},
      {"variant": "GGAAUAGCUCAACACAGCGCGGCAAUGUGGCUGUGGCUAGACUGCC", "self-cleavage": 0.11},
      {"variant": "GGAAGAGCUCAACACAGCGUGGCAAAGUAGCUGUGUCUAGACUGAC", "self-cleavage": 0.13},
      {"variant": "GGAAGACCUCAACACAUCGUGUCAAAGUGGCUGUGGCUGGACUGCC", "self-cleavage": 0.1},
      {"variant": "GGAAGAACUCAACACAGCGUGGCAAAGUGGCUGUCGCUAGACUGCC", "self-cleavage": 0.49},
      {"variant": "GGAACAGCUCAACACAGCGUGGCAAAAUGGCUGUGGCUAGACUGCC", "self-cleavage": 0.24},
      {"variant": "GGAACAGCUCAACACAGCGUGGCAAAGUGGCUGUAGCUAGACUGCC", "self-cleavage": 0.37},
      {"variant": "GGAAGAGCUCAACACAGCGUGGCAAAGUGGCUGUGCCUAGACUGGC", "self-cleavage": 0.64},
      {"variant": "GGAAGAGCUCAACACAGCGUGACCAAGUGGCUGUGGCUAGACUGCC", "self-cleavage": 0.28},
      {"variant": "GGAAGAGCUCAACACAUUGUCGCAAAGUGGCUGUGGCUAGACUGCC", "self-cleavage": 0.2},
      {"variant": "GGAAGAGCACAACACAGCGUGGCAAAGUGGCUGUGGCUUGACUGCC", "self-cleavage": 0.14},
      {"variant": "GGAAGAGCGCAAAACAGCGUGGCAAAGUGGAUGUUGCUAGACUGCC", "self-cleavage": 0.3},
      {"variant": "GGAAGAGCUCAACACAGCGUGGCAAAAUGGUUGUGGCUAGACUGCC", "self-cleavage": 0.35},
      {"variant": "GGAAGAUCUCAACACAGCGUGCCAAAGUGGCUGUGGCUAUACUGCA", "self-cleavage": 0.05},
      {"variant": "GGAAGAGCUCAACACAGCGGUGCAAAGUGGCUGUGGCUAGACUGCC", "self-cleavage": 0.17},
      {"variant": "GGAAGAACUCAACACAGGGUGGCGAAUUGGCUGUGGCUAGACUGCU", "self-cleavage": 0.04},
      {"variant": "GGAAGAGCUCAACACAGCGUGGCAAAGUGUCUGUGGCUAGACGGCG", "self-cleavage": 0.55},
      {"variant": "GGAAGAGCUCAACACAGCGUGACAAAGUCGCUGUGGCUAGACGGCC", "self-cleavage": 0.02},
      {"variant": "GGAAGAGCUCAACACAGCGUGGCAAAGUGGCUGUCUCUAGACUGCU", "self-cleavage": 0.45},
      {"variant": "GGAAGAGCUCAACACAGCGUCGCAAAGUGGAUGUGGCUAGACUGCC", "self-cleavage": 0.12},
      {"variant": "GGAAGAGCUCAACACAGCGUGCCAAAGUGGAUGUGGCUAGACUGCC", "self-cleavage": 0.18},
      {"variant": "GGAAGAGCUCAACACAGCGUAGCAAAGUGGCUGUGACUUUACGGCC", "self-cleavage": 1.2},
      {"variant": "GGAAUAGCACAACACAGCGUGGCUAAGUGGCUGAGACUAGACUGCC", "self-cleavage": 0.13},
      {"variant": "GGAAGAUCGCAAAACAGCGUGGCAAAGUGGCUUUGGCUAGACUGGC", "self-cleavage": 0.15},
      {"variant": "GGAAGAGCUCAACACAGCGUGGCAAAGUGCCUGUGGCUAGAGUGCA", "self-cleavage": 0.02},
      {"variant": "GGAAGACCUCAACACCGCGUGGCAAAGUGGCUGUGGCUAGACUGCC", "self-cleavage": 0.09},
      {"variant": "GGAAGACCUCAUCACAGCGUGGCAAAGAGUCUUUGGCUAGACUGCG", "self-cleavage": 0.02},
      {"variant": "GGAAGAGCUCAACACAACGUGGCAAAGUGGCUGUGGGUAGACUUCC", "self-cleavage": 0.03},
      {"variant": "GGAAGAGCCCAACACAACGUGGCAAUGUGGCUGCGGCUAGACUGCC", "self-cleavage": 0.04},
      {"variant": "GGAAGAGCUCAACACAGCAUGGCAAAGUGGCUGUGGCUUGACUGCC", "self-cleavage": 0.42},
      {"variant": "GGAAGAGCUCAACACAGCAUGGAAAAGUGACUGUGGCUAGACUGCC", "self-cleavage": 0.23},
      {"variant": "GGAAGAGCUCAACACAGCGAGGCAAAGCGGCUGUGGCUAGACUGCC", "self-cleavage": 0.17},
      {"variant": "GGAAGAGCUCAACACAGCGGGGUAAAGUGGCUGUGGGUAGAGUGCC", "self-cleavage": 0.01},
      {"variant": "GGAAGAACUCAGCACAGCGUGGGAAAGUGGCUGUGGCUAGACUGCC", "self-cleavage": 0.24},
      {"variant": "GGAACAUCUCACCACAGCGUGGCAAAGUGGCUGUGGCUCGACUGCC", "self-cleavage": 0.07},
      {"variant": "GGAACAGCUCAACACAUCGUGGCAAAGUGGCUGUGGCUAGACUGCC", "self-cleavage": 0.04},
      {"variant": "GGAAGAGCUCAACACAGCCUAGCAAAUUGGCUGUGGCUAGACUGUC", "self-cleavage": 0.19},
      {"variant": "GGAAGAGCUCAACACAGCGUAGCAAAGUGGCUGUGGACAGACUGCC", "self-cleavage": 0.14},
      {"variant": "GGAAGAUCUGAAAACAGCGUCGCAAAGUUUAUGUGGCUCGACUGCC", "self-cleavage": 0.02},
      {"variant": "GGAAGACCUCAACACAGUGUGGCAAAGUGGCUCUGGCUAGACUGCC", "self-cleavage": 0.06},
      {"variant": "GGAAGACCUUAACACAGCGUGAGAAAGUGGCUGUGGCUAAACGGCC", "self-cleavage": 0.04}
    ]}
  ]
}
